Reference: PubChem BioAssay AID1347073 (National Center for Advancing Translational Sciences (NCATS), 2019)
About 200 (0.44%) of roughly 45,000 compounds were called active. About 7% were inconclusive and are not listed. Calls come from the whole dose curve; as a rule, active = well fitted activation curve with a large enough effect; inconclusive = small, poorly fitted or top-dose-only effect; inactive = no such curve, though single readings can be large or run the other way. This is one part of the list.

experiment: qHTS of TDP-43 Inhibitors: NCGC Sytravon Library Screen; settings: yeast TDP-43 toxicity rescue, BacTiter-Glo growth, 24 h; series mostly up to 46.1 µM; growth rescue (activation): at the top concentration; note: 0% is about no effect; nearly all actives have a fitted effect of over 55% in size
Method in brief: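 TDP-43-expressing yeast, pregrown in raffinose, seeded at OD600 0.02 in galactose medium with compound for 24 hr at 30 deg C. Growth read by BacTiter-Glo luminescence, so rescue of toxicity appears as activation.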

Row | Compound | growth rescue (activation)
1 | CC(=O)c1cccc(OCC(=O)N2CCCc3ccccc32)c1 | inactive: 29.2%
2 | Cc1ccc(S(=O)(=O)NNC(=O)CCCCC(=O)NNS(=O)(=O)c2ccc(C)cc2)cc1 | inactive: -15.2%
3 | CCN(CC)c1ccc(N/C(N)=N/c2nc(C(F)(F)F)cc(=O)[nH]2)cc1 | inactive: 0.139%
4 | N#Cc1ccc(-c2ccc(OCC(=O)NCC(=O)Nc3ccc(F)c(F)c3F)cc2)cc1 | inactive: 13.7%
5 | O=C(COc1ccccc1Cl)Nc1ccc2oc(=O)ccc2c1 | inactive: 13.2%
6 | CC(/C=N/NC(=O)CSc1n[nH]c(=O)[nH]c1=O)=C\c1ccccc1 | inactive: 17.2%
7 | CCOC(=O)C1CCCN(C(=S)NC2CCCC2)C1 (stereo not given) | inactive: 11.1%
8 | O=C(NC(=S)Nn1cnnc1)c1ccccc1Cl | inactive: 10.9%
9 | Cc1cc(=O)[nH]c(SCC(=O)N(CCC#N)c2ccccc2)c1C#N | inactive: -4.94%
10 | CCCC(C(=O)NC1CCCC1)N(Cc1ccc(F)cc1)C(=O)c1snc(C(N)=O)c1N (stereo not given) | inactive: -0.171%
11 | C[C@]12C=C[C@H](O)CC1=CCC1C2CC[C@@]2(C)C1CCC21OCCO1 (stereo not given in full) | inactive: 0.0738%
12 | O=C(CSc1n[nH]c(=O)[nH]c1=O)Nc1ccccc1C(=O)c1ccccc1 | inactive: 8.73%
13 | NS(=O)(=O)c1ccc(CCNC(=O)C2(S(=O)(=O)c3ccc(Cl)cc3)CC2)cc1 | inactive: 5.09%
14 | O=C(Nc1cccc(Cl)c1)C1CCN(C(=O)c2cccs2)CC1 | inactive: 14%
15 | CCOC(=O)c1sc(NC(=O)c2ccc(OC)cc2)nc1C | inactive: 7.43%
16 | COc1ccc(OC)c(S(=O)(=O)N2CCCC(C(=O)N3CCOCC3)C2)c1 (stereo not given) | inactive: -8.7%
17 | CNCCCOc1cccc(OC(C)C)c1 | inactive: 28.7%
18 | N#C/C(=N\Nc1ccccc1F)c1nc(-c2ccccc2)cs1 | inactive: 7.53%
19 | O=C(COC(=O)/C=C/c1ccccc1Cl)NC(=O)Cc1ccccc1 | inactive: 7.15%
20 | Nc1ccc(Oc2cc(N)cc(Oc3ccccc3)c2)cc1 | inactive: 21.1%
21 | Cc1ccc(-c2nc(CSc3nc4ccccc4c(=O)n3C)cs2)cc1 | inactive: 30%
22 | CC(C)c1nnc(SCC(=O)N2CCN(C(=O)c3ccco3)CC2)n1N | inactive: 7.6%
23 | CC(=O)N1N=C(c2ccc(C)o2)CC1c1ccc(F)cc1 (stereo not given) | inactive: 9.18%
24 | CC(C)[C@H](NC(=O)c1ccco1)C(=O)OCC(=O)c1ccc(Br)s1 | inactive: 0.501%
25 | Cc1nc2scc(C)n2c(=O)c1S(=O)(=O)N1CCN(c2ccccc2)CC1 | inactive: 6.11%
26 | CCOc1ccc2c(c1)c(N=NC(=N)N)c(O)n2C | inactive: 10.7%
27 | Nc1nnc(SCC(=O)NN2C(=O)NC3(CCCCC3)C2=O)s1 | inactive: 1.44%
28 | Cc1ccc(NC(=O)Cn2c(O)c(N=NC(N)=S)c3ccccc32)cc1 | inactive: 7.35%
29 | CSc1ccc(/C=C/C(=O)OCC(=O)N(C)CCC#N)cc1 | inactive: -17.4%
30 | Cc1cc(C)cc(NC(=O)CSc2n[nH]c(-c3cccnc3)n2)c1 | inactive: 0.911%
